According to PMC12040169 (PLOS Biology, 2025):
The list shows a part of the results.

Test system: T1, C. trachomatis L2/434/Bu expressing GFP (CTL2-GFP)
T1 construct: L2/434/Bu GFP intracellular growth in HeLa cells
Parameters: species or system HeLa; C. trachomatis total inclusion area by high-content imaging, normalised to DMSO
Conditions: total inclusion area; 28.5 h, 10 µM; inhibitor
Procedure, shortened: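 Bulk GFP and resorufin signals were read first. Wells were then fixed, stained with Hoechst and imaged to detect GFP inclusions and host nuclei. MICs followed the previously described calculation.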

Row | Structure (SMILES) | % of control remaining
1 | Cc1ccc(S(=O)(=O)Nc2nc3ccc(S(=O)(=O)N4CCOCC4)cc3s2)cc1 [CBK266988] | 119.938
2 | CCOc1ccc(-c2ccnc(NCC(C)(C)CO)n2)cc1C(=O)O [CBK307530] | 47.6214
3 | NC1=C(c2nc3ccccc3s2)C(=O)CN1CCN1CCOCC1 [CBK265946] | 81.957
4 | O=C(O)c1cccc(NC(=S)NC(=O)c2cccnc2)c1 [CBK265739] | 103.833
5 | COC(=O)c1c(C)[nH]c(C(=O)CSc2ncnc3scc(-c4ccccc4)c23)c1C [CBK265918] | 90.829
6 | CCOC(=O)N1CCCC(=O)c2c(C(=O)O)cn(C)c21 [CBK005301] | 75.1633
7 | CC(C)(C)c1ccc(-c2nc3ncccc3cc2N)cc1 [CBK067611] | 107.224
8 | O=C(c1cc(F)cc(F)c1)N1CC[C@@H](c2ccccc2)[C@H](O)C1 [CBK283715] | 84.3556
9 | CC1Cc2ccccc2N1C(=O)CSc1nnc(N)s1 (stereo not shown) [CBK269530] | 118.842
10 | Cc1ccc(O)c(NC(=O)c2nc3nc(C)cc(C(F)F)n3n2)c1 [CBK266186] | 108.769
11 | CCNC(=O)N1CC2(CCN(Cc3ccc(OC(F)(F)F)cc3)CC2)c2ccccc21 [CBK126688] | 85.3922
12 | O=C(COc1ccc2ccccc2c1Br)NCc1ccccn1 [CBK267361] | 116.306
13 | O=C(COc1ccc2ccccc2c1)Nc1cc([N+](=O)[O-])ccc1F [CBK263780] | 103.07
14 | Cc1ccc(CCC(=O)Nc2ccc(S(N)(=O)=O)cc2)o1 [CBK269031] | 90.9053
15 | CNC(=O)C1(Cc2ccc(-c3cccc(C)c3)cc2)CCN(C(=O)CC(C)(C)C)CC1 [CBK285923] | 125.827
16 | CNC(=O)CN(C)C(=O)c1coc(COc2ccc3sc(C)nc3c2)n1 [CBK307571] | 38.7436
17 | CCCC(NC(=O)Nc1ccnn1CC(C)C)c1nccn1C (stereo not shown) [CBK307444] | 82.5559
18 | COc1ccc(S(=O)(=O)N2CCOCC2)cc1C(=O)N1CCCC(C)C1 (stereo not shown) [CBK305011] | 69.194
19 | O=C(O)CN(CC(=O)O)S(=O)(=O)c1ccc(Cl)cc1 [CBK261526] | 90.6396
20 | CCOc1ccccc1NC(=O)c1ccc(CS(=O)(=O)c2ccc(C)cc2)cc1 [CBK268572] | 115.866

Row | Structure (SMILES) | % of control remaining
21 | COc1ccc2c(c1)c(C)c(C(=O)NC(C)Cc1ccccn1)n2C (stereo not shown) [CBK281425] | 108.106
22 | O=C(O)CCCC(=O)OCc1ccco1 [CBK260933] | 81.0397
23 | CCN(CC)S(=O)(=O)c1cc(S(=O)(=O)N(CC)CC)c2cccc3c2c1NC(=O)O3 [CBK005022] | 82.1762
24 | COCc1[nH]nc(O)c1Cc1c(Cl)cccc1Cl [CBK105305] | 104.508
25 | CCC(CO)Nc1cncc(-c2cccc(N)c2)n1 (stereo not shown) [CBK065278] | 118.068
26 | COc1cccc([C@H]2CN(C(=O)c3ccccc3)[C@@H]3CCN(Cc4ccccc4)C[C@H]23)c1 [CBK285624] | 89.0989
27 | c1ccc(CSc2ncnc3c2oc2ccccc23)cc1 [CBK287398] | 109.528
28 | CC(NC(=O)CCc1ccncc1)c1nc2ccccc2s1 (stereo not shown) [CBK281666] | 81.7864
29 | CC(C)S(=O)(=O)n1ccn(-c2ccc(Oc3ccccc3)cc2)c1=O [CBK106644] | 89.5265
30 | CC(C)n1c(=O)n(CC(=O)N2CCCCC2)c2cccnc21 [CBK283526] | 100.925
31 | COc1ccc2[nH]cc(CCNC(=O)c3ccc(C)nc3N3CCOCC3)c2c1 [CBK106203] | 103.807
32 | CN(CC(O)CO)C(=O)c1coc(COc2cccc(F)c2)n1 (stereo not shown) [CBK306854] | 99.6374
33 | COCC(=O)NC(C)c1nc2ccccc2n1Cc1ccccc1C (stereo not shown) [CBK269885] | 106.604
34 | COc1ccc(-c2cnc(NCC3CC3)c(C(=O)N3CCN(C)CC3)c2)cc1 [CBK076327] | 88.9597
35 | O=C(CSc1nnc(-c2ccc(Cl)cc2Cl)[nH]1)Nc1ccc(F)cc1 [CBK267651] | 112.484
36 | O=C(c1ccc2[nH]ccc2c1)N1CCN(CC2CCOC2)CC1 (stereo not shown) [CBK304866] | 50.9733
37 | FC(F)(F)c1nc2ccccc2nc1Sc1nc[nH]n1 [CBK093808] | 95.1732
38 | CCCNc1nc(-c2ccc(C)c(C)c2)cn2ccnc12 [CBK066627] | 99.6063
39 | CC1=C(C)CC(C(=O)Nc2ccc3c(c2)oc2ccccc23)C(C(=O)O)C1 (stereo not shown) [CBK263533] | 103.009
40 | CCCC(=O)c1ccc(S(=O)(=O)N2CCCN(Cc3cccc4cccnc34)CC2)cc1 [CBK062909] | 93.5189
